{"source": "PubChem BioAssay AID624418", "about": "(National Center for Advancing Translational Sciences (NCATS), 2012)", "note": "Hit rate of the full screen: of about 410,000 compounds, about 530 (0.13%) were called active. The shares of active, inactive and inconclusive entries below differ from those in the screen. The call rests on the fitted dose curve; in most records, active means well fitted inhibition curve with a large enough effect; inconclusive means small, poorly fitted or top-dose-only effect, or another doubt; inactive means no such curve, though single readings can be large or run the other way. Potencies of inconclusive entries are doubtful fits and often do not repeat. Potency means the concentration at half of the fitted maximal effect."}
{"test": "qHTS of GLP-1 Receptor Inverse Agonists: Cytotox Screen", "conditions": "HEK293 cAMP-luciferase reporter cells, luminescence, 24 h; series mostly up to 38.3 µM", "how_it_was_run": "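To flag toxic compounds, the library was rerun on cells for 24 hr at 37 deg C and 5% CO2. Viability-linked luminescence was captured 12 min after adding luciferase detection reagent.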"}
{"smiles": "Cc1cc(C)c2sc(N(Cc3cccnc3)C(=O)CCS(=O)(=O)c3ccccc3)nc2c1", "Potency": "inactive"}
{"smiles": "O=S(=O)(c1ccccc1)C(/C=N\\O)/C=C/c1ccccc1", "note": "(stereo not drawn)", "Potency": "inconclusive: 28.2 µM [inhibitor, single point]"}
{"smiles": "COc1ccc(C(=O)O/N=C(\\N)Cc2ccc(Cl)cc2)cc1OC", "Potency": "inconclusive: 15.8 µM [inhibitor, single point]"}
{"smiles": "CC(C)(C)OC(=O)[C@H](Cc1ccccc1)NC(=O)c1[nH]cnc1C(=O)Nc1ccccc1F", "Potency": "inconclusive: 20 µM [inhibitor, single point]"}
{"smiles": "CC(O)CNc1nc2ccccc2n1-c1ncnc2sc3c(c12)CCC3", "note": "(stereo not drawn)", "Potency": "inconclusive: 28.2 µM [inhibitor, single point]"}
{"smiles": "COc1cccc(NC(=O)C2CCN(S(=O)(=O)c3ccc4c(c3)NC(=O)CO4)CC2)c1", "Potency": "inactive"}
{"smiles": "O=C(CSc1cccc[n+]1[O-])c1ccccc1Br", "Potency": "active: 0.794 µM"}
{"smiles": "CCC(Sc1nc2ccccc2o1)C(=O)Nc1nnc(C)s1", "note": "(stereo not drawn)", "Potency": "inconclusive: 10 µM [inhibitor, partial curve, poor fit]"}
{"smiles": "C=C(C)COc1ccc(-c2n[nH]c(C)c2-c2ccc(Br)cc2)c(O)c1", "Potency": "inconclusive: 11.2 µM [inhibitor, partial curve, poor fit]"}
{"smiles": "CCc1ccc(OCCOCC(O)CNC2CCCC2)cc1", "note": "(stereo not drawn)", "Potency": "inconclusive: 28.2 µM [inhibitor, single point]"}
{"smiles": "Cc1ccc(C)c(N2CCN(C3CCCCC3NS(=O)(=O)c3ccccc3)CC2)c1", "note": "(stereo not drawn)", "Potency": "inactive"}
{"smiles": "Fc1cccc(NC(=S)N2CCc3ccccc32)c1", "Potency": "inconclusive: 31.6 µM [inhibitor, single point]"}
{"smiles": "COc1nnc(-c2ccc(N3CCOCC3)c(NC(=O)c3ccc(C)cc3)c2)c2ccccc12", "Potency": "inconclusive: 28.2 µM [inhibitor, single point]"}
{"smiles": "Cc1cc(C)c2cc(CN(Cc3cccnc3)C(=O)c3ccc(F)cc3)c(Cl)nc2c1", "Potency": "inconclusive: 28.2 µM [inhibitor, single point]"}
{"smiles": "Cc1c(C(=O)N2c3ccccc3Sc3ccccc32)cccc1[N+](=O)[O-]", "Potency": "inconclusive: 22.4 µM [inhibitor, single point]"}
{"smiles": "CN1C(c2ccc(F)cc2)=CS/C1=C(/C#N)c1nnc(N2CCOCC2)n1-c1ccccc1", "Potency": "inconclusive: 0.355 µM [inhibitor, full curve, poor fit]"}
{"smiles": "O=C1C2C(C(=O)N1/N=C/c1cc(Br)cc([N+](=O)[O-])c1O)C1C=CC2C12CC2", "note": "(stereo not drawn)", "Potency": "inconclusive: 7.08 µM [inhibitor, partial curve, poor fit]"}
{"smiles": "CCC1CCCCN1CCCNC(=O)c1cc2c(Cl)nc3ccccc3c2s1", "note": "(stereo not drawn)", "Potency": "inconclusive: 11.2 µM [inhibitor, single point]"}
